{
  "source": "PubChem BioAssay AID2451",
  "about": "(National Center for Advancing Translational Sciences (NCATS), 2010)",
  "note": "“And” between values parts separate entries of the source, which are not always exact repeats. Equal entries are not always repeated. Hit rate of the full screen: of about 290,000 compounds, about 2,100 (0.72%) were called active. The inconclusive results got no clear call from the source; some entries with a clear call stand among them for comparison. The call rests on the fitted dose curve; in most records, active means well fitted inhibition curve with a large enough effect; inconclusive means small, poorly fitted or top-dose-only effect, or effect the other way; inactive means flat fitted curve, though single readings scatter. Potencies beside an inconclusive call are fits to weak or partial responses and may not hold up. On the % scale 0 is the no-effect control and ±100 the full control effect; potency means the concentration at half of the fitted maximal effect; tags describe the fitted curve by direction and shape.",
  "data": [
    {"biological_target": "Fructose-bisphosphate aldolase (Giardia intestinalis (strain ATCC 50803 / WB clone C6)) (UniProt A8B2U2)", "sequence (A8B2U2 whole entry, looked up)": "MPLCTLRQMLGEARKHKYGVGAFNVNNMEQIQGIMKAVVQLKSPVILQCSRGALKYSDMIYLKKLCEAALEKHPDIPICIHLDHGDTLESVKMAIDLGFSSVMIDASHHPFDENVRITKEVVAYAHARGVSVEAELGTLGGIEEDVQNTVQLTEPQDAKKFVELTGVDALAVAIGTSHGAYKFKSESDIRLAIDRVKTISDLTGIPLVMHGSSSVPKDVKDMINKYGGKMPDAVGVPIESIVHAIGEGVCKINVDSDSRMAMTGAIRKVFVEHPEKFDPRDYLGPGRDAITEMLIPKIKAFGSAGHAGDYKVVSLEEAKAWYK", "experiment": "qHTS Assay for Inhibitors of Fructose-1,6-bisphosphate Aldolase from Giardia Lamblia; further: nearly all actives have a fitted effect of over 55% in size", "settings": "purified Giardia FBPA; activity, negative = inhibition: at 59.6 µM (top of the series) unless noted", "outline": "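Giardia FBPA (40 nM reagent) was preincubated 10 min at RT with compound (up to 57.5 uM final), then substrate plus GAPDH/TPI/NAD/arsenate coupling system with diaphorase/resazurin was added; resorufin fluorescence (525/598 nm) was read after 20 min.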", "values": [
      {"smiles": "Cc1ccc(N(CN2C(=O)c3ccccc3C2=O)C(=O)c2ccc([N+](=O)[O-])cc2[N+](=O)[O-])cc1", "activity, negative = inhibition": "inactive: -8.2%"},
      {"smiles": "COCCN(CC(=O)NC1CCCCC1)C(=O)/C=C/C(=O)c1ccc(OC)cc1O", "activity, negative = inhibition": "inactive: 0.972%"},
      {"smiles": "CCOC(=O)N1CCC(NC(=O)Cn2cc3c(n2)CCCC3)CC1", "activity, negative = inhibition": "inactive: 0.935%"},
      {"smiles": "CCCCCCNC(=O)N[C@H](Cc1ccc(O)cc1)C(=O)NCCC[C@H]1CN2C(=NC[C@H]2CCC)N1CC1CCC1", "Potency": "active: 15.8 µM"},
      {"smiles": "Cc1ccc(N2CCN(/N=C/c3cccnc3)CC2)cc1", "activity, negative = inhibition": "inactive: 6.4%"},
      {"smiles": "CC(C)CC(=O)N1CCN(Cc2ccc3ccccc3c2)CC1", "Potency": "inconclusive: 28.2 µM [inhibitor, single point]"},
      {"smiles": "O=S(=O)(c1ccc(NC(=S)NN=C(C2CC2)C2CC2)cc1)N1CCOCC1", "Potency": "active: 7.06 µM"},
      {"smiles": "C(=N\\Nc1nc2ccccc2s1)/c1ccccn1", "Potency": "inconclusive: 19.9 µM [inhibitor, single point]"},
      {"smiles": "CN(C)c1ccc(C(=S)N2CCN(c3ccc([N+](=O)[O-])cc3)CC2)cc1", "Potency": "active: 7.92 µM"},
      {"smiles": "Cn1ncc(Br)c1C(=O)N1CCc2ccccc21", "activity, negative = inhibition": "inactive: -10.8%"},
      {"smiles": "CCOC(=O)c1cnn2c(N)c(C#N)cnc12", "activity, negative = inhibition": "inactive: -1.51%"},
      {"smiles": "Cc1cc(=O)n(CCCO)c(O)c1C#N", "Potency": "inconclusive: 7.06 µM [inhibitor, partial curve]"},
      {"smiles": "CCOc1ccc(NC(=S)c2ccncc2)cc1", "Potency": "inconclusive: 19.9 µM [inhibitor, single point]"},
      {"smiles": "N#C/C(=C\\c1ccc(O)c(O)c1)C(=O)NCCCc1ccccc1", "Potency": "inconclusive: 39.7 µM [inhibitor, partial curve] and inconclusive: 6.29 µM [inhibitor, partial curve]"},
      {"smiles": "CN(C)c1cccc(NC(=O)Cc2ccc(F)cc2)c1", "Potency": "inconclusive: 15.8 µM [inhibitor, partial curve]"},
      {"smiles": "CC1=NN(C(N)=S)C(=O)C1N=Nc1ccc([N+](=O)[O-])cc1", "note": "(stereo unspecified)", "Potency": "inconclusive: 35.5 µM [activator, single point]"},
      {"smiles": "CNc1ncnc2ccc(-c3ccccc3C)cc12", "Potency": "inconclusive: 15.8 µM [inhibitor, partial curve]"},
      {"smiles": "CC(NC(=O)CCNS(=O)(=O)c1ccccc1)c1ccccc1", "note": "(stereo unspecified)", "Potency": "inconclusive: 20 µM [activator, single point]"},
      {"smiles": "CCn1c(=O)c(C(=O)NCc2ccccn2)c(O)c2ccccc21", "Potency": "inconclusive: 35.4 µM [inhibitor, single point]"},
      {"smiles": "Cc1ccc(C2=NN(C(=O)c3cccs3)C(c3ccccc3O)C2)cc1", "note": "(stereo unspecified)", "activity, negative = inhibition": "inactive: 6.08%"},
      {"smiles": "CNC(=S)N/N=C(\\C)c1ccc(-n2ccnc2)cc1", "activity, negative = inhibition": "inactive: -24.8%"},
      {"smiles": "C=C1c2cccc(O)c2C(O)=C2C(=O)[C@]3(O)C(O)=C(C(N)=O)C(=O)[C@@H](N(C)C)[C@@H]3[C@@H](O)[C@H]12", "Potency": "inconclusive: 17.7 µM [inhibitor, partial curve]"},
      {"smiles": "O=C(O)C1CCCCC1C(=O)Nc1ccc(-c2ccccc2)cc1", "note": "(stereo unspecified)", "activity, negative = inhibition": "inactive: 15.2%"},
      {"smiles": "Cc1cc(C)nc(N2N=C(C(C)(C)C)CC2=O)n1", "Potency": "inconclusive: 3.54 µM [inhibitor, full curve]"},
      {"smiles": "O=C(O)c1cccc(NC2=C(n3nnc4ccccc43)C(=O)c3ccccc3C2=O)c1", "Potency": "inconclusive: 0.63 µM [inhibitor, full curve]"},
      {"smiles": "O=c1c2[nH]c3ccc(F)cc3c2nc2n1CCS2", "activity, negative = inhibition": "inactive: 0.113%"},
      {"smiles": "CCOc1ccccc1C(=O)Nc1ccc(S(=O)(=O)Nc2nccc(C)n2)cc1", "Potency": "inconclusive: 17.8 µM [inhibitor, partial curve]"},
      {"smiles": "O=[N+]([O-])c1ccccc1S(=O)(=O)Oc1ccccc1/C=N/n1cnnc1", "Potency": "inconclusive: 19.9 µM [inhibitor, partial curve]"},
      {"smiles": "CCCn1nnc(NC(=S)NC(=O)c2ccc(-c3ccc(Br)cc3)o2)n1", "Potency": "inconclusive: 11.2 µM [inhibitor, partial curve]"},
      {"smiles": "O=C(CSc1nnnn1-c1ccccc1)CC(=O)Nc1ccc(Cl)cc1", "Potency": "inconclusive: 44.6 µM [inhibitor, partial curve]"},
      {"smiles": "COc1ccc(CCNCC(=O)Nc2c(C)cc(C)cc2C)cc1OC", "Potency": "inconclusive: 15.8 µM [inhibitor, partial curve]"},
      {"smiles": "O=S(=O)(c1cccs1)N1CCN(CC(O)COC2CCCc3ccccc32)CC1", "note": "(stereo unspecified)", "Potency": "inconclusive: 28.2 µM [inhibitor, single point]"},
      {"smiles": "CS(=O)(=O)N1N=C(c2cccs2)CC1c1ccco1", "note": "(stereo unspecified)", "activity, negative = inhibition": "inactive: -10.9%"},
      {"smiles": "CCOc1cc(-c2cc(-c3ccc(C)o3)nc(N)c2C#N)ccc1O", "activity, negative = inhibition": "inactive: -0.746%"},
      {"smiles": "COc1ccccc1CNC1CCCc2ccccc21", "note": "(stereo unspecified)", "Potency": "active: 15.8 µM"},
      {"smiles": "Clc1ccc(OCCCCN2CCCCC2)cc1", "Potency": "inconclusive: 15.8 µM [inhibitor, partial curve]"},
      {"smiles": "CC(O)CNCCCOc1ccc(Cl)cc1C(C)(C)C", "note": "(stereo unspecified)", "Potency": "inconclusive: 17.7 µM [inhibitor, partial curve]"},
      {"smiles": "O=C(CSc1nnc(-c2csc3c2CCCC3)o1)Nc1ccccc1", "activity, negative = inhibition": "inactive: 2.4%"},
      {"smiles": "COc1cc(/C=N/n2c(-c3cc(C)[nH]n3)n[nH]c2=S)cc(OC)c1OC", "Potency": "inconclusive: 5.61 µM [inhibitor, partial curve]"},
      {"smiles": "COCCCNC(=S)NNC(=O)c1csc(C)n1", "Potency": "inconclusive: 6.29 µM [inhibitor, full curve]"},
      {"smiles": "CC(C)C[C@H](NC(=O)c1nc[nH]c1C(=O)N[C@@H](CC(C)C)C(=O)OCc1ccccc1)C(=O)OCc1ccccc1", "activity, negative = inhibition": "inactive: -14.1%"},
      {"smiles": "COc1ccc(C(=O)N2CCN(Cc3ccccc3C(F)(F)F)CC2)cc1", "Potency": "inconclusive: 20 µM [inhibitor, partial curve]"},
      {"smiles": "O=[N+]([O-])c1ccc(Sc2cccc[n+]2[O-])c2nonc12", "Potency": "active: 0.354 µM"},
      {"smiles": "COc1ccc(NCc2ccc(OC)c(OC)c2)cc1", "Potency": "inconclusive: 3.54 µM [inhibitor, full curve]"},
      {"smiles": "COc1ccc2ccccc2c1CNC(C)c1ccccc1", "note": "(stereo unspecified)", "Potency": "inconclusive: 22.4 µM [inhibitor, partial curve]"},
      {"smiles": "CCOc1cc(NC(=O)C2CCCO2)c(OCC)cc1NC(C)=O", "note": "(stereo unspecified)", "Potency": "inconclusive: 17.7 µM [inhibitor, partial curve]"},
      {"smiles": "COc1ccc2c(c1)c1ccccc1n2C", "activity, negative = inhibition": "inactive: -9.19%"},
      {"smiles": "C[C@H](NC(=O)c1nc[nH]c1C(=O)N[C@@H](C)c1ccccc1)C(=O)OC(C)(C)C", "Potency": "inconclusive: 17.7 µM [inhibitor, single point]"},
      {"smiles": "O=C(Nc1ccc(C(=O)Oc2ccccc2)c(O)c1)c1ccccc1", "activity, negative = inhibition": "inactive: -13.9%"},
      {"smiles": "COc1ccccc1CNCC(c1ccccc1)c1ccccc1", "Potency": "inconclusive: 17.8 µM [inhibitor, partial curve]"},
      {"smiles": "O=C(Nc1nc(-c2ccccn2)cs1)c1ccco1", "Potency": "active: 15.8 µM"},
      {"smiles": "Cn1c(SCC(=O)N/N=C/c2ccccn2)nnc1-c1ccccc1", "Potency": "inconclusive: 17.7 µM [inhibitor, single point]"},
      {"smiles": "O=S(=O)(c1cccc2nsnc12)N1CCc2ccccc21", "Potency": "inconclusive: 14.1 µM [inhibitor, partial curve]"},
      {"smiles": "N#C/C(=C\\c1ccc(-c2ccccc2[N+](=O)[O-])o1)C(N)=O", "Potency": "inconclusive: 1.58 µM [inhibitor, full curve]"},
      {"smiles": "C=CCOc1ccc(CNCC2CCCO2)cc1", "note": "(stereo unspecified)", "Potency": "inconclusive: 35.5 µM [inhibitor, partial curve]"},
      {"smiles": "O=C(NC(CSCc1ccccc1)C(=O)N/N=C/c1ccc(O)cc1O)c1ccc([N+](=O)[O-])cc1", "note": "(stereo unspecified)", "Potency": "inconclusive: 14.1 µM [inhibitor, partial curve]"},
      {"smiles": "Cc1ccc(S(=O)(=O)CCC#N)cc1", "activity, negative = inhibition": "inactive: 8.61%"},
      {"smiles": "CC(C)(C)c1ccc(S(=O)(=O)/C=C/C#N)cc1", "activity, negative = inhibition": "inactive: -0.236%"},
      {"smiles": "Cc1c(O)ccc(C(=O)CN2CCN(c3ccccc3F)CC2)c1O", "activity, negative = inhibition": "inactive: -4.17%"},
      {"smiles": "CSc1nc2ccc(NC(=O)NC(=O)c3c(F)cccc3F)cc2s1", "activity, negative = inhibition": "inactive: 1.22%"},
      {"smiles": "Cc1ccccc1-n1c(=S)[nH]c2nc3c(cc2c1=O)COC(C)(C)C3", "Potency": "inconclusive: 15.8 µM [inhibitor, partial curve]"},
      {"smiles": "O=C(Nc1ccc2[nH]c(=O)[nH]c2c1)Nc1ccc(F)cc1F", "Potency": "inconclusive: 15.8 µM [inhibitor, partial curve]"},
      {"smiles": "C[C@H](NC(=O)c1nc[nH]c1C(=O)N[C@@H](Cc1ccccc1)C(=O)OC(C)(C)C)c1ccccc1", "Potency": "inconclusive: 19.9 µM [inhibitor, single point]"},
      {"smiles": "O=C(O)c1ccc(CSc2nc3ccccc3c(=O)n2-c2ccccc2)cc1", "Potency": "inconclusive: 25.1 µM [activator, single point]"},
      {"smiles": "c1ccc2c(c1)ncn2CCn1cnc2ccccc21", "activity, negative = inhibition": "inactive: -4.61%"},
      {"smiles": "CC(/C=N/NC(=O)c1cc(-c2ccc(Cl)cc2)nc2ccccc12)=C\\c1ccco1", "Potency": "inconclusive: 12.6 µM [inhibitor, partial curve]"},
      {"smiles": "O=C(NCc1ccncc1)C1COc2ccccc2O1", "note": "(stereo unspecified)", "activity, negative = inhibition": "inactive: 4.75%"},
      {"smiles": "CSc1nnc(-c2ccco2)c(-c2ccco2)n1", "Potency": "active: 3.54 µM"},
      {"smiles": "Cc1ccc(NNC(N)=S)cc1Cl", "Potency": "active: 17.7 µM"},
      {"smiles": "COc1cccc(OC)c1C(=O)Nc1sc2c(c1C(N)=O)CCN(Cc1ccccc1)C2", "Potency": "active: 12.6 µM"},
      {"smiles": "COc1ccccc1/C=C/C(=O)c1c2c(c(C)[nH]c1=O)CCCC2", "activity, negative = inhibition": "inactive: -26.5%"},
      {"smiles": "O=C(O)c1ccc(NC(=S)NC(=O)c2ccc(-c3ccc(Br)cc3)o2)cc1", "Potency": "inconclusive: 12.6 µM [inhibitor, partial curve]"},
      {"smiles": "c1ccc(SCCCCN2CCOCC2)cc1", "Potency": "inconclusive: 20 µM [inhibitor, single point]"},
      {"smiles": "Cc1ccc(C)n1-c1ccsc1C(=O)CC#N", "Potency": "inconclusive: 15.8 µM [inhibitor, partial curve]"},
      {"smiles": "Cc1ccc(NS(=O)(=O)c2cc(-c3cc(C)no3)ccc2C(C)C)nc1", "Potency": "active: 20 µM"},
      {"smiles": "Cn1c(=O)c2[nH]c(SCc3ccccn3)nc2n(C)c1=S", "Potency": "inconclusive: 14.1 µM [inhibitor, single point]"}
    ]}
  ]
}
